Hit rate of the full screen: of about 43,000 compounds, about 200 (0.47%) were called active. Not shown: some 12% with an inconclusive outcome. The call rests on the fitted dose curve; in most records, active means well fitted cell-killing curve with a large enough effect; inconclusive means small, poorly fitted or top-dose-only effect, or effect the other way; inactive means flat fitted curve, though single readings scatter. The list shows a part of the results.
test: Cell viability qHTS assay in S16 Pmp22-F2sN cells; settings: S16 Pmp22-F2sN Schwann cells (luciferase reporters placed in the Pmp22 gene) viability, CellTiter-Glo, 24 h; series mostly up to 57.5 µM; activity change, negative = cytotoxicity: at the top concentration; further: nearly all actives have a fitted effect of over 65% in size
How it was run: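 Seed 500-1,000 S16 Pmp22-F2sN cells per well in phenol-red-free DMEM with 10% heat-inactivated FBS; pin-add 23 nL compound; incubate 24 h at 37C; add CellTiter-Glo, wait 15 min protected from light; read luminescence.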
On the % scale 0 is the no-effect control and ±100 the full control effect.

SMILES | activity change, negative = cytotoxicity
CCn1c2ccccc2c2cc(NC(=O)COc3ccc(C)cc3C)ccc21 | inactive: -2.41%
Cc1ccccc1-n1nc(CO)c(C(=O)NCc2cccnc2)n1 | inactive: 5.21%
CCc1cccc(C)c1NC(=O)Cn1cnc2c1c(=O)n(C)c(=O)n2C | inactive: 4.1%
COCCNC(=O)Nc1cc(C(=O)NCc2ccc(C(C)C)cc2)ccc1N1CCCC1 | inactive: 7.97%
COc1ccc(OC)c(NC(=O)c2c(N3CCCC3=O)c3cc(OC)ccc3n2C)c1 | inactive: 14%
Cc1nc2nncn2c(Nc2ccccc2)c1C | inactive: -20.5%
CCc1nn2c(=O)cc(COC(=O)c3cccc(NC(=O)c4cccs4)c3)nc2s1 | inactive: 1.21%
CCOC(=O)c1c(-c2ccccc2)csc1NC(=O)c1cc(=O)c2ccc(C)cc2o1 | inactive: -8.92%
COc1ccc(CNC(=O)Cn2ncc3c4ccccc4n(Cc4cccc(Cl)c4)c3c2=O)cc1 | inactive: 3.91%
COc1ccc(OC)c(NCc2cccn2-c2nnc(N3CCCCC3)s2)c1 | inactive: 11.3%
CN1CCc2c(sc3c2C(=O)NC(c2ccc(OC(=O)c4ccccc4)cc2)N3)C1 (centres undefined) | inactive: -2.31%
Cc1ccc(C)c(S(=O)(=O)c2cn(C)c3cc(N4CCCCC4C)c(F)cc3c2=O)c1 (centres undefined) | inactive: -18.9%
COc1ccccc1CNC(=O)C1CCCN(C(=O)c2cnn(-c3ccc(F)cc3)c2-n2cccc2)C1 (centres undefined) | inactive: -1.33%
Cc1ccc(NC(=O)C(Cc2ccccc2)n2cccc2)cc1 (centres undefined) | inactive: 1.22%
COCCCn1c(=O)c2sccc2n2c(CCCC(=O)Nc3cc(C)cc(C)c3)nnc12 | inactive: 11.9%
Cc1cccc(-c2nc3c4ccccc4nc(N4CCN(c5ccccc5F)CC4)n3n2)c1 | inactive: -1.58%
Cc1ccc(CNC(=O)NCc2noc3ccc(C)cc23)cc1 | inactive: 1.59%
COc1ccc(C(=O)NCCn2cc(SCC(=O)Nc3ccc(C)cc3)c3ccccc32)cc1 | inactive: 0.901%
Cn1c(=O)c2c(-c3ccc(Cl)cc3)n(Cc3ccc(Cl)cc3)cc2n(C)c1=O | inactive: 1.36%
COc1ccc(C)cc1NC(=O)c1ccc2c(=O)n3c(nc2c1)CCCCC3 | inactive: -15.2%
CCN(C(=O)CCS(=O)(=O)c1cc2[nH]c(=O)c(=O)[nH]c2cc1C)c1ccccc1 | inactive: 8.26%
COc1ccc(-c2noc(N3CCC(C(=O)Nc4ccc(F)cc4Cl)CC3)n2)cc1 | inactive: -3.5%
Cc1ccc2c(c1)C(=O)OC(C(=O)Nc1ncc(Cc3ccc(C(C)C)cc3)s1)C2 (centres undefined) | inactive: 3.85%
CCOc1ccc(C(c2c(O)cc(C)n(CCOC)c2=O)N2CCN(c3ccccc3)CC2)cc1 (centres undefined) | inactive: -9.55%
COc1cccc(CNC(=O)C(CC(C)C)NS(=O)(=O)c2ccc3c(c2)oc(=O)n3C)c1 (centres undefined) | inactive: -20.7%

SMILES | activity change, negative = cytotoxicity
Cc1c2cnn(CC(=O)N3CCCCC3)c(=O)c2c(C)n1Cc1ccc(F)cc1 | inactive: 3.6%
CCCN(CCC)C(=O)Cn1c(=O)n(-c2cccc(OC)c2)c(=O)c2c(C)c(C(=O)N(C)C)sc21 | inactive: -0.302%
Cc1ccc(N(CC(=O)N2CCN(c3ccc(Cl)cc3)CC2)S(=O)(=O)c2c(C)nn(C)c2C)cc1 | inactive: -4.4%
O=C(NCCc1ccc(F)cc1)C(=O)NCC(c1cccs1)S(=O)(=O)c1ccc(F)cc1 (centres undefined) | inactive: -1.32%
Cc1ccc(-c2cn3nc(N4CCCC(C(=O)Nc5ccc(F)cc5)C4)sc3n2)cc1 (centres undefined) | inactive: -7.55%
Cc1ccc(CN2C(=O)c3ccccc3Sc3ccc(C(=O)NC4CCCC4)cc32)cc1 | inactive: -0.209%
CCNC(=O)c1c2c(nc3ccccc13)C(=O)N(C1CCCCC1)C2 | inactive: 11.4%
O=C(Cn1c(SCc2ccccc2F)nc2cccnc21)Nc1ccc(F)c(Cl)c1 | inactive: -23.2%
CCc1cccc(NC(=O)Cn2ncc3c([nH]c4ccc(C)cc43)c2=O)c1 | inactive: 9.53%
CCOc1ccccc1NC(=O)CCc1c(C)nc2c3cccnc3nn2c1C | inactive: -3.26%
CCc1cccc(NC(=O)CN(c2ccc(C)cc2)S(=O)(=O)c2cccs2)c1 | inactive: -2.73%
Cc1ccc(C(=O)N2CCc3cc(CNC(=O)CCc4ccccc4)ccc32)cc1 | inactive: 2.22%
O=C(NC1CC(=O)N(c2ccccc2)C1)c1ccco1 (centres undefined) | inactive: 0.918%
COc1cccc(C(=O)NCCc2csc(-c3cccc(F)c3)n2)c1OC | inactive: 7.47%
CCc1ccc(S(=O)(=O)Nc2cc3c(cc2N2CCOCC2)n(C)c(=O)c(=O)n3C)cc1 | inactive: 9.23%
CCOc1ccc(NC(=O)C(=O)NCCc2ccccc2)cc1 | inactive: 9.69%
O=c1c(N2CCCCC2)csc2ccc(F)cc12 | inactive: 3.96%
COc1ccc(-c2nc3ccccc3s2)cc1NC(=O)COc1cccc(C)c1 | inactive: 5.52%
CCc1nc2ccc(C(=O)NCc3cccc(Br)c3)cc2nc1CC | inactive: 1.76%
COCCCNC(=O)c1nn(-c2ccc(C)cc2)c(=O)n(C)c1=O | inactive: -0.32%
O=C(c1cnc(N2CCCCC2)c2ccccc12)N1CCN(c2cccc(Cl)c2)CC1 | inactive: 1.45%
Cc1cc(C)cc(NC(=O)CCCn2c(=O)c3cccn3c3ccccc32)c1 | inactive: 15.6%
O=C(Cn1c(=O)n(CCCS(=O)(=O)C2CCCCC2)c(=O)c2ccccc21)Nc1ccc(F)c(Cl)c1 | inactive: 0.705%
COc1ccc(C)cc1NC(=O)N1CCN(c2nnc(C)c3c(C)n(-c4ccccc4)nc23)CC1 | inactive: 3.35%

From PubChem BioAssay AID1508642 (National Center for Advancing Translational Sciences (NCATS), 2021)
